The values below come from US10889575B2, “4,4-diphenylpiperidine compounds or pharmaceutically acceptable salts thereof, pharmaceutical compositions and uses thereof” (Academy of Military Medical Sciences, priority 2017, dated 2021).

Design in all cases: key: “—” indicates that the compound had no effect on this channel current
Holding throughout (conditions): 10 μM

Assay [1] concerns TTX sensitive sodium channel. It is filed as cell-based, Wistar rats.
The subject of assay [2] is Voltage-gated potassium channel. Put plainly: voltage-gated potassium channel current, primary cultured hippocampal neurons, patch clamp. It counts as cell-based, Wistar rats. (In patch-clamp work, channel activity is measured electrically.)
A further assay concerns the target P/Q-type calcium channel (Homo sapiens, UniProt O00555). Briefly: P/Q-type calcium channel current inhibition in Xenopus oocytes.

Chain of P/Q-type calcium channel (O00555 whole entry): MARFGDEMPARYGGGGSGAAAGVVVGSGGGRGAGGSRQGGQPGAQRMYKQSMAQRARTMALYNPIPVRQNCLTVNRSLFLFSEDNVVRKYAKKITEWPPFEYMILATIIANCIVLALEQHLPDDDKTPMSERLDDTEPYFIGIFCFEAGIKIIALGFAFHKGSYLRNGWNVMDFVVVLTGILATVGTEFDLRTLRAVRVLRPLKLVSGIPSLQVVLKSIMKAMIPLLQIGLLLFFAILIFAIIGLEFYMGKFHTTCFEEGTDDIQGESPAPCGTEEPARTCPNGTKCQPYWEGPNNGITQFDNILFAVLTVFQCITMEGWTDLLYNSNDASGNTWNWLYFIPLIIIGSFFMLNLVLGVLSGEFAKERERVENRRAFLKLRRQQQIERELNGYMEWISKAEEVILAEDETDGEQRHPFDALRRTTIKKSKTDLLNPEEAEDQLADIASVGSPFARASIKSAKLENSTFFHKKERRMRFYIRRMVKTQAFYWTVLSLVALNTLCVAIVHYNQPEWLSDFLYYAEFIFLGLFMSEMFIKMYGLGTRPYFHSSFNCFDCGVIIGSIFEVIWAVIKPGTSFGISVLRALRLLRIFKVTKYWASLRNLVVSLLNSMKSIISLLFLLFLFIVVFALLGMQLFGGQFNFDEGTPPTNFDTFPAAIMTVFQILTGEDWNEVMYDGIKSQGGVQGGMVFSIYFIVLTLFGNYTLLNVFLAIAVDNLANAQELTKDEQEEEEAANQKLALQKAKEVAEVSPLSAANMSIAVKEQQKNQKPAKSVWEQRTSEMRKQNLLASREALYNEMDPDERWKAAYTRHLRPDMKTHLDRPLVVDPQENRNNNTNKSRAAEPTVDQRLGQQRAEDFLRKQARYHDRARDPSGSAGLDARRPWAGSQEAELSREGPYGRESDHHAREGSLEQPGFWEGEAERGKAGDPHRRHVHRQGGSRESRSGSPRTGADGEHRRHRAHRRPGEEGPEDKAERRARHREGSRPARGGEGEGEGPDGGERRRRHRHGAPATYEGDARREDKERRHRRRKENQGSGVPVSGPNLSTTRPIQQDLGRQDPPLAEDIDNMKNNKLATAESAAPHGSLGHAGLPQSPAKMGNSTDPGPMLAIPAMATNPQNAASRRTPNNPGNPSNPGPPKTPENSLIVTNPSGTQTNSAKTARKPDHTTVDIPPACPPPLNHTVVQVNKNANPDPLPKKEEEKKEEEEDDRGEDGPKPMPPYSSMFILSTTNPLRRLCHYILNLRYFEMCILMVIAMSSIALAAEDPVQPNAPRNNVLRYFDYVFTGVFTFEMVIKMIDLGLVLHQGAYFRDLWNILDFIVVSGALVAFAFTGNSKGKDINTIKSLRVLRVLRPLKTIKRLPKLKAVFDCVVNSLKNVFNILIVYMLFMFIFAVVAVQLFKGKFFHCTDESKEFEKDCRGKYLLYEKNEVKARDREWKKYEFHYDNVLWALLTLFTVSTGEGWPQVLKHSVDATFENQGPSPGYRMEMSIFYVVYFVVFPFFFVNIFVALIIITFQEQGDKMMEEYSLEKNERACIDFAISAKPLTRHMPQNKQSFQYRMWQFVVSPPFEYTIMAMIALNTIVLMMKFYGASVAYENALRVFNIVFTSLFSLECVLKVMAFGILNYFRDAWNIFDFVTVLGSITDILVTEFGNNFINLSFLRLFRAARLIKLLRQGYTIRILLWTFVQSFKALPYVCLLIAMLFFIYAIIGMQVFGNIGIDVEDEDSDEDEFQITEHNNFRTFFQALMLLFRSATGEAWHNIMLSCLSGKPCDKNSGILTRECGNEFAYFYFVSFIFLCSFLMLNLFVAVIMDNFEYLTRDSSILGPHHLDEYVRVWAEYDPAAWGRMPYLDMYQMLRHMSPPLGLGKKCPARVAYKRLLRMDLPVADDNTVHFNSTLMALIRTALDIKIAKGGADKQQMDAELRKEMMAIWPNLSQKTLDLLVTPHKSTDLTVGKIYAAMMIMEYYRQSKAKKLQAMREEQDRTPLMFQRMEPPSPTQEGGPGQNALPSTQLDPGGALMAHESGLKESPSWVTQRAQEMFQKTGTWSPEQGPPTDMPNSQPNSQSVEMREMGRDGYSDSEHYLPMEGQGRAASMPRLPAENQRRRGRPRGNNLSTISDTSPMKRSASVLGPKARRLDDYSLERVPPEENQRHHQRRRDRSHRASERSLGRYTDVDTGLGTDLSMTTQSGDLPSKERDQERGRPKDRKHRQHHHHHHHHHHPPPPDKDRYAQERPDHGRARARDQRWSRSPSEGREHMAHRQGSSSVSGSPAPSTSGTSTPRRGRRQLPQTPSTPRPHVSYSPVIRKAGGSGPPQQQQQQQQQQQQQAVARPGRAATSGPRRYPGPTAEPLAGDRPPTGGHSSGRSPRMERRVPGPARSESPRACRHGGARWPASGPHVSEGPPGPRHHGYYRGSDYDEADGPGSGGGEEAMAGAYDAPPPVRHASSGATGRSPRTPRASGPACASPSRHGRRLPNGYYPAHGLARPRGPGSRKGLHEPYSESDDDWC
Chain of P/Q-type calcium channel (Q02641 whole entry, further chain): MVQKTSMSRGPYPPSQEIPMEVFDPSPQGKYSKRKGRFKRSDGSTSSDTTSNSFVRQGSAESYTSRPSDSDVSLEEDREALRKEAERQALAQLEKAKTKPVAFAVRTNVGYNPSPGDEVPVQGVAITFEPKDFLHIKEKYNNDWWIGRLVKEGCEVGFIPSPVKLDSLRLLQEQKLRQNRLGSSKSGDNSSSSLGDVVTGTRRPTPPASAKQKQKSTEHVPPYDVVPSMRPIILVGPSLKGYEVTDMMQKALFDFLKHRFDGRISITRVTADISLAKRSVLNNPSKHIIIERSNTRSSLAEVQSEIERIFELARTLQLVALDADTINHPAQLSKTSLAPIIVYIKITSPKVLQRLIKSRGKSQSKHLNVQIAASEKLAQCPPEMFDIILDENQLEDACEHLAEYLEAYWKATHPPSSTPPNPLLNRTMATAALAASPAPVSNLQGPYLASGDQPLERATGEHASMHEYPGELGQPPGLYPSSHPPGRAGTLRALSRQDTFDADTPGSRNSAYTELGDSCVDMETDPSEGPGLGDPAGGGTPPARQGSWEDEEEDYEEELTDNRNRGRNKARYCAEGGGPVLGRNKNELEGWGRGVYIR
Chain of P/Q-type calcium channel (P54290 945-1091, further chain): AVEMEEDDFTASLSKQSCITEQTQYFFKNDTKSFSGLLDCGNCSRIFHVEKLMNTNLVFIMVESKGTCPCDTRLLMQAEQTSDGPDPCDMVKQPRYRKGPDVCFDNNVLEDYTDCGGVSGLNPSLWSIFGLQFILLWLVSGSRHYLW
Chain of P/Q-type calcium channel (P54290 25-944, further chain): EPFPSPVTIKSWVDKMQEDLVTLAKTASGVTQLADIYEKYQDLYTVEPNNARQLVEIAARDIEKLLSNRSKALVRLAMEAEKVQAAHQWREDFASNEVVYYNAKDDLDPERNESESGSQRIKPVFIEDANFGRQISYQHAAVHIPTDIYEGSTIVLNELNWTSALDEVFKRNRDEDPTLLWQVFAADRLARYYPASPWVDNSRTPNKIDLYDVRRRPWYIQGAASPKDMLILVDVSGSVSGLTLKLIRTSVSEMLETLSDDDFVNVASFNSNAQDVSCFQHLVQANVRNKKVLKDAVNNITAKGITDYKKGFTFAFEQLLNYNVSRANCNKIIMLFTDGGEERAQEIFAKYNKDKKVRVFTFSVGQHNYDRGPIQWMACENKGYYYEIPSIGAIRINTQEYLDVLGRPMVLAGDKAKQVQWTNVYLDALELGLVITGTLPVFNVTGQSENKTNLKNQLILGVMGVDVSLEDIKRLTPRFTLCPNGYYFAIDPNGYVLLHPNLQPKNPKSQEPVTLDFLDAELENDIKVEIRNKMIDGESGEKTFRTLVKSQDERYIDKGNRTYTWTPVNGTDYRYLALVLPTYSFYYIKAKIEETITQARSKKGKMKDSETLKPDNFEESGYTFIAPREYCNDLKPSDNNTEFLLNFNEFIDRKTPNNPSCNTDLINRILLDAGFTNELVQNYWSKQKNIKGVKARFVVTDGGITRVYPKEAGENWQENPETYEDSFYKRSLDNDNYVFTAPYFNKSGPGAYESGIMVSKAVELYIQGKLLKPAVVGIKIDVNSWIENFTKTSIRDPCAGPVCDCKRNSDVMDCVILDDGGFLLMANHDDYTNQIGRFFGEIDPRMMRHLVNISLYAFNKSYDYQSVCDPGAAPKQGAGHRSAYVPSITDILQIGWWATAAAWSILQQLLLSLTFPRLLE

Regarding `CN(C)c1ccc(CN2CCC(c3ccccc3)(c3ccccc3)CC2)cc1` [Compound (3), 1-(4-dimethylaminobenzyl)-4,4-diphenylpiperidine], the “Current inhibition, TTX sensitive sodium channel” value in assay [1] is on record as “—”. Further, the “Current inhibition, Voltage-gated potassium channel” value in assay [2] is on record as “—”. The “Current inhibition, P/Q-type calcium channel” value on P/Q-type calcium channel is on record as “—”.
Take `COc1cc(CN2CCC(c3ccccc3)(c3ccccc3)CC2)cc(OC)c1OC.Cl` [Compound (4) hydrochloride, 1-(3,4,5-trimethoxybenzyl)-4,4-diphenylpiperidine hydrochloride]: the “Current inhibition, TTX sensitive sodium channel” value in assay [1] is “—”. Besides, in assay [2], the “Current inhibition, Voltage-gated potassium channel” value is given as “—”. For the same molecule, the “Current inhibition, P/Q-type calcium channel” value at P/Q-type calcium channel is reported as “—”.
`O=C(CCN1CCC(c2ccccc2)(c2ccccc2)CC1)c1ccc2[nH]c(=O)oc2c1` [Compound (1), 6-(3-(4,4-diphenylpiperidinyl)-propionyl)benzoxazolin-2-one]: the “Current inhibition, TTX sensitive sodium channel” value in assay [1] is “—”. The “Current inhibition, Voltage-gated potassium channel” value in assay [2] is on record as “—”. Also, the “Current inhibition, P/Q-type calcium channel” value on P/Q-type calcium channel was “—”.
On to `c1ccc(C2(c3ccccc3)CCN(Cc3cccs3)CC2)cc1` [Compound (5), 1-(2-methylthienyl)-4,4-diphenylpiperidine], for which, in assay [1], the “Current inhibition, TTX sensitive sodium channel” value was “—”. Moreover, the “Current inhibition, Voltage-gated potassium channel” value in assay [2] is recorded as “—”.
Regarding `O=C(CN1CCC(c2ccccc2)(c2ccccc2)CC1)c1ccc2[nH]c(=O)oc2c1` [Compound (2), 6-(3-(4,4-diphenylpiperidinyl)-acetyl)benzoxazolin-2-one], in assay [1], the “Current inhibition, TTX sensitive sodium channel” value is “—”. For the same molecule, in assay [2], the “Current inhibition, Voltage-gated potassium channel” value was “—”.
